The list shows a part of the results.

This assay relates to PF3D7_0420300 AP2 domain 1 (GST-tagged). Description: gcPBM binding intensity (ln(normalized median fluorescence intensity)); higher = stronger DNA binding. In outline:
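An Agilent 4 × 180k array of primer-extended double-stranded 36-bp intergenic genomic probes, with negative controls, was incubated for 1 h with GST-tagged P. falciparum DNA-binding domains expressed in E. coli. Alexa488 anti-GST antibody detected bound protein, scanned at 488 nm. Binding intensity is the highest Masliner-normalised natural-log median intensity across replicate spots of either probe orientation.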
“CTTATACTTCTACATCGTACAAAAGATGGTATAATT [XGTACX_site2698]”: the “gcPBM binding intensity (ln)” value turned out to be 9.08.
Take “AAATTATAAGTAAAAAGTACTTAATATATAATAAAC [XGTACX_site6065]”: the “gcPBM binding intensity (ln)” value stood at 9.4.
In the case of “TAACTTAAATAATACATACACACATGTACATACAGA [CACACA_site1594]”, the “gcPBM binding intensity (ln)” value turned out to be 9.63.
To TATAATTTTTTTTGGGTGCTTGGGTAAATTTTATTA belongs 9.53; to “AATTATATATTATCATGTACAAATATAGTAATACAA [XGTACX_site6845]”, 9.27; to “TATATAAATGGACACACACACACCTTATAATTATTA [CACACA_site6093]”, 10.2.
To “AATGTGTTCATATATGCACACGCATATATATTATTG [CACACA_site9274]” belongs 9.44.
With “TTTATAAATTGACACACACACATGTGAACATAAAAA [CACACA_site6978]”, the “gcPBM binding intensity (ln)” value came out at 9.75.
To “CCTAATTTTTTTAGTTGTACTTTTTTTTTTTTTTAT [XGTACX_site7948]” belongs 9.34; to “GCCTATATGTTTAGTTGTACTCCTAATATTATTTGT [XGTACX_site6060]”, 9.75; to “CAAATTATTTCGAGGTGTACTTTTTTATATTATATT [XGTACX_site8309]”, 9.56.
Under “ATTGATTTTTAATATACACACATAAGTACCACAAAA [CACACA_site339]” stands 9.6; under “ACATTAATATAAAGCACACATATATATAATATATAT [CACACA_site508]”, 9.45.
In the case of “AAAAATATAAACTGCACACACAAAAAAAAAAGAGAA [CACACA_site1367]”, the “gcPBM binding intensity (ln)” value is 10.1.
“TATAACATATTTATATATGACATTATCTATTCATTT [CACACA_negctrl_site864]”: the “gcPBM binding intensity (ln)” value is 9.18.
Turning to “TTAATATTGTATCCAAGTACACAAATTATTATATTT [XGTACX_site8067]”, the “gcPBM binding intensity (ln)” value is 9.21.
Regarding “CAATATTATTATATTTGTACACATGCGTATTTTTTA [XGTACX_site4154]”, the “gcPBM binding intensity (ln)” value came to 9.26.
For the sequence “CCCGTAAATACAAAAAGTACAAAAGTTCATCTTATA [XGTACX_site1154]”, the “gcPBM binding intensity (ln)” value stood at 9.12.
As for “TAATAATAATATAAAATACACACCTATTATTTTTAC [CACACA_site4003]”, the “gcPBM binding intensity (ln)” value was 9.42.
Under “CATGATATATAAATATGTACATATATATATATATAT [XGTACX_site1760]” stands 9.43; under “ATGTAACACATATTTGGTACAGATAGATAAAAGTAT [XGTACX_site8291]”, 9.44; under “TATATATATATATTCACACATAAAAATAAAATAAAA [CACACA_site4774]”, 9.26.
Take “GTATAATATATTTATAGTACATAATTATTTATAAAT [XGTACX_site1826]”: the “gcPBM binding intensity (ln)” value is 9.16.
Consider “ATATATATATATGTGTGTACTTATTTATTTATTTGT [XGTACX_site549]”, for which the “gcPBM binding intensity (ln)” value worked out at 9.8.
As for “TTTTCTTAATATTTATGTATATATATAATATGATAT [TGCATGCA_negctrl_site572]”, the “gcPBM binding intensity (ln)” value was found to be 9.11.
Turning to “TAATAAATCCTATATAGTACATATATGCAAGTATGT [XGTACX_site3955]”, the “gcPBM binding intensity (ln)” value amounted to 9.24.
Regarding “AAATTTATATAAAACAGTACAATTAAAAAAAAAATA [XGTACX_site8015]”, the “gcPBM binding intensity (ln)” value came out at 9.33.
Consider “GAAACGTTTTTGAGTAGTACACACACAATAAGGATG [XGTACX_site6809]”, for which the “gcPBM binding intensity (ln)” value amounted to 9.72.
Under “ATATAAATATAAACATGTACATATATATATATATAT [XGTACX_site2824]” stands 9.25; under “TTTGTAATAACATATGCATGTTCAAAAAATAAAATA [TGCATGCA_site817]”, 8.97; under “ACGTTTTATTTTTATTGTACTCACATTGAAATGAAT [XGTACX_site6094]”, 9.54.
As to “ATTTTTTTATAAAATTTTTTATATATTAAATATTAT [CACACA_negctrl_site135]”, the “gcPBM binding intensity (ln)” value turned out to be 9.04.
Under “AAAATTGTGCTTTCACGGACACAAGATCGAAATAGA [XGTACX_site4068]” stands 9.13; under “ATATATTTATACATTTGTACATATACATATTTCTGA [XGTACX_site3982]”, 9.2.
Turning to ATTTTTTTTGTAAAAGTGCATATATATATATATATA, the “gcPBM binding intensity (ln)” value worked out at 9.14.
To “ATAGATATACATATCACACATATATATATATATATA [CACACA_site4985]” belongs 9.18; to “AAATACATATATACATGTACATAAATATATATATAT [XGTACX_site5367]”, 9.22; to “TAAGGTAGTTCTGTATCACACACATATATATATATA [CACACA_site8693]”, 9.64.
“TGAGAAAGCGCATATTGTACTATATATTTTAACCAC [XGTACX_site4098]”: the “gcPBM binding intensity (ln)” value came to 9.27.
To “AATCCATTCTATTTTTTACACACGTATGTAAATATT [CACACA_site8860]” belongs 9.52; to “AATATATATGGACATGCATGGACATAATAATCTATT [TGCATGCA_site838]”, 9.36.
To “GAAAATAATGTTACATGTACGAATATGTAACTATTG [XGTACX_site6833]” belongs 9.22.
To “ATTTATCTATATATATGTACATATTATTTTTGTGGT [XGTACX_site7390]” belongs 9.49.
In the case of “GATATACAATTTAAGTGTACTATAATAAAATATATA [XGTACX_site3013]”, the “gcPBM binding intensity (ln)” value was found to be 9.05.
Under “ATAAAAAAATATAAATGTACATATATATATATATAT [XGTACX_site5620]” stands 9.15.
Turning to “TATATTAATTCGTTTTGTACACACATAATGAATAAT [XGTACX_site4618]”, the “gcPBM binding intensity (ln)” value came out at 9.38.
On to “TTTAAAATATTGTATTGTACGCAATAAAAAATACCA [XGTACX_site182]”, for which the “gcPBM binding intensity (ln)” value was determined as 9.15.
Under “ATTAAATAAAATCATGCACACAATATATATTTTAAG [CACACA_site2495]” stands 9.4; under ATAAGCATCTTTTGTGTGCACATAACAAAAAAAAAA, 9.36.
Under “TCTAACATATCTTTAATACACACTTAAAAAAGTACT [CACACA_site652]” stands 9.15; under “ATTTTACATATTTGCACACATATATTTATATACATA [CACACA_site854]”, 9.77; under “TTATTTGTTTAATATGCATGCTAAAAGGGTTGATGT [TGCATGCA_site581]”, 9.27.
As for “GAGTAAAACAAATATACACACCATAAAGTTATAAAA [CACACA_site5008]”, the “gcPBM binding intensity (ln)” value stood at 9.66.
To “AATATAAAAATGCACACACACAAAAAAAAAAAAAAA [CACACA_site6546]” belongs 9.84.
As for “AATTTAAATTCATCACGTACATACGTGAATATACAC [XGTACX_site5220]”, the “gcPBM binding intensity (ln)” value was 9.14.
To “CATAAAAATGTATCAAGTACACATTTATTTATCCAT [XGTACX_site152]” belongs 9.16; to “GTATAACACAAGTGAAGTACAGGGGTAAACATTTAT [XGTACX_site3203]”, 9.52; to “TACAGATAAAAGTACACACACACACCGATATATATA [CACACA_site4675]”, 10.2.
As to “ATAAAAAAATATGTAAACATATATATGTATTTATGT [CACACA_negctrl_site1517]”, the “gcPBM binding intensity (ln)” value came out at 9.2.
Under “TTAAAATAAAGAGCAGTGCGCATATTTTGTTATTAT [GTGCAC_site9753]” stands 9.22; under “TTTTTATATTTTATTAGTACTTATTATATATATAAT [XGTACX_site4900]”, 9.26.
In the case of “TTTTTTTTTAAAGAAAATAAAAATATGTACTTGACA [CACACA_negctrl_site1113]”, the “gcPBM binding intensity (ln)” value turned out to be 8.63.
With “AAACAATTTTTATTTTGTACATAACAATATATTTAT [XGTACX_site1375]”, the “gcPBM binding intensity (ln)” value stood at 9.15.
Under “ATTCGTGAACTAGCCAAACACACGAAAAAAAAAAAA [CACACA_site3342]” stands 9.11.
To “ATGTAACATAGGAAATGTACATATAAATATAATTTA [XGTACX_site6452]” belongs 9.16; to “TTTTTTTTTGGGGGTGCATGCAAGACATATATTTAA [TGCATGCA_site228]”, 9.35; to “CATACATATATATATACACACATACATATATATACA [CACACA_site8165]”, 9.65.
To “TTTTTTTTTTGATGTTGTACATATATATTATATAAT [XGTACX_site2765]” belongs 9.21; to “GCTATTTATTTATATTGTACTTTTTTTTTTTTTTTT [XGTACX_site3624]”, 9.59; to “TATTTTGTTCTTTCCACACACAAATACCTATCTTGT [CACACA_site7833]”, 9.81.
As for “ACAAAATTGATATATGCACACATATATATATTAAAT [CACACA_site8152]”, the “gcPBM binding intensity (ln)” value is 9.51.
With “GTAGGTTTATATTGTAGTACATACAAACGTTAACAA [XGTACX_site5476]”, the “gcPBM binding intensity (ln)” value was 9.14.
Under “TTTATTTATTATTAAAGTACTAAAATATATTATTAT [XGTACX_site4887]” stands 9.06.
To “ATACGTATTTTCTTTTGTACATATATATAAAATATT [XGTACX_site2675]” belongs 9.42; to “TATATTTATTAGTTTCGTACGTACAAAGTTATTTTT [XGTACX_site8847]”, 9.27; to “AATATTGCACCATTTTGTACATAATATATTCAAATA [XGTACX_site475]”, 9.34.
As for “TATTTTAATATTTGTAGTACAGATTGAAATGACGAA [XGTACX_site4805]”, the “gcPBM binding intensity (ln)” value was 9.15.
As to “ATATACGCATTAATAACACACAATATGATAACAAAT [CACACA_site3623]”, the “gcPBM binding intensity (ln)” value worked out at 9.75.
To “AAAATGTATGGAATGCTCTTTTTTAAGTATTATATA [GTGCAC_negctrl_site175]” belongs 9.19.
To “GTGGGAAACATAAACACACACAAAAAGAAAAAATAG [CACACA_site4810]” belongs 9.95; to “TACATACATACATACACACACACATATAAATACATA [CACACA_site4626]”, 10.2.
Take “TCTCTAACTTTTAATACACACAAATAAATAAATAAA [CACACA_site6245]”: the “gcPBM binding intensity (ln)” value is 9.29.
To “GTTTTATTTATTTCATGTACACAAAAAAGGTTTTAA [XGTACX_site6525]” belongs 9.22.
Turning to “AAAATAAAATAATAAAATAAAATAATAATAAAATAA [TGCATGCA_negctrl_site401]”, the “gcPBM binding intensity (ln)” value was found to be 9.41.
In the case of “AATACATATATATATTGTACATATAGGGAAAAATTA [XGTACX_site2275]”, the “gcPBM binding intensity (ln)” value is 9.27.
Consider “TGGTATCAAAAGAATACACACACACCGACATATATA [CACACA_site9265]”, for which the “gcPBM binding intensity (ln)” value stood at 10.
Turning to “GAATATAAACATATTACACACATCTATCTGTACATT [CACACA_site5114]”, the “gcPBM binding intensity (ln)” value came to 9.72.
Under “AAAAAAAAAAAATGTGCATGCTATATATATATATAT [TGCATGCA_site727]” stands 9.18.
To “TTAACAAATAGACACACACACACACGCAAAAAAAAA [CACACA_site6387]” belongs 10.2.

The record behind these values is the supplement of paper PMC11417369.
